Some of the results follow. The list includes weakly bound sequences.

31 sequences from publication PMC12820563 can be followed below.

In this assay the target is T1, MBP-FoxP3dN (UniProt Q99JB6).
T1 sequence: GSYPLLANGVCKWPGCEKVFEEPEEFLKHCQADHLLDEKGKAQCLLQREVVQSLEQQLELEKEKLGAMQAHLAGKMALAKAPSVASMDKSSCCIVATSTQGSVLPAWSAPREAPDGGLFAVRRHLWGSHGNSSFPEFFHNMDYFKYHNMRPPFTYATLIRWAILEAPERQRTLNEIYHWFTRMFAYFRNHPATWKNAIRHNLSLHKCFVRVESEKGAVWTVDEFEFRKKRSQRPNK
The experiment in a line: PD-seq (MBP pull-down with sequencing). The following applies: 20 mM Tris-HCl pH 7.5, 100 mM NaCl, 1.5 mM MgCl2, 0.4 uM protein, 0.1 uM dsDNA library, 30 min, room temperature, amylose pull-down; high values mean tight binding; double strand, one strand shown.
Turning to “GATGATTGTTCTCCCAGCTGATGAATTCCCTTCCTCGAGTAAACAAATTTTCCTAATCTTTCTGTTCAAGCGCCATCTAC”, the binding signal (RPM ratio (pull-down/input)) worked out at 0.222.
The same measure for “GATGATTGTTCTCCCAGCTGATGAATTAAGTGAATCGAGTAAACAAATTTTCCTAATCTTTCTGTTCAAGCGCCATCTAC”: 0.328.
For the sequence “GATGATTGTTCTCCCAGCTGATGAATTCACATCTTCGAGTAAACAAATTTTCCTAATCTTTCTGTTCAAGCGCCATCTAC”, the binding signal (RPM ratio (pull-down/input)) worked out at 0.465.
The same measure for “GATGATTGTTCTCCCAGCTGATGAATTACTCCGGTCGAGTAAACAAATTTTCCTAATCTTTCTGTTCAAGCGCCATCTAC”: 0.189; for “GATGATTGTTCTCCCAGCTGATGAATTGCGGGAATCGAGTAAACAAATTTTCCTAATCTTTCTGTTCAAGCGCCATCTAC”: 0.552.
The same measure for “GATGATTGTTCTCCCAGCTGATGAATTCTACGGTTCGAGTAAACAAATTTTCCTAATCTTTCTGTTCAAGCGCCATCTAC”: 0.317; for “GATGATTGTTCTCCCAGCTGATGAATTGCACGATTCGAGTAAACAAATTTTCCTAATCTTTCTGTTCAAGCGCCATCTAC”: 0.697.
Turning to “GATGATTGTTCTCCCAGCTGATGAATTAGCGCACTCGAGTAAACAAATTTTCCTAATCTTTCTGTTCAAGCGCCATCTAC”, the binding signal (RPM ratio (pull-down/input)) worked out at 0.612.
Consider “GATGATTGTTCTCCCAGCTGATGAATTTGCGAGATCGAGTAAACAAATTTTCCTAATCTTTCTGTTCAAGCGCCATCTAC”, for which the binding signal (RPM ratio (pull-down/input)) is 0.519.
Turning to “GATGATTGTTCTCCCAGCTGATGAATTCAAGTCATCGAGTAAACAAATTTTCCTAATCTTTCTGTTCAAGCGCCATCTAC”, the binding signal (RPM ratio (pull-down/input)) was 0.377.
In the case of “GATGATTGTTCTCCCAGCTGATGAATTGGAATCCTCGAGTAAACAAATTTTCCTAATCTTTCTGTTCAAGCGCCATCTAC” it was 0.459; in that of “GATGATTGTTCTCCCAGCTGATGAATTATAGCCGTCGAGTAAACAAATTTTCCTAATCTTTCTGTTCAAGCGCCATCTAC”, 0.504; in that of “GATGATTGTTCTCCCAGCTGATGAATTAGAAAGTTCGAGTAAACAAATTTTCCTAATCTTTCTGTTCAAGCGCCATCTAC”, 0.216.
For the sequence “GATGATTGTTCTCCCAGCTGATGAATTACGAAATTCGAGTAAACAAATTTTCCTAATCTTTCTGTTCAAGCGCCATCTAC”, the binding signal (RPM ratio (pull-down/input)) was 0.516.
“GATGATTGTTCTCCCAGCTGATGAATTGACCTAGTCGAGTAAACAAATTTTCCTAATCTTTCTGTTCAAGCGCCATCTAC”: the binding signal (RPM ratio (pull-down/input)) was 0.234.
In the case of “GATGATTGTTCTCCCAGCTGATGAATTGGAGACCTCGAGTAAACAAATTTTCCTAATCTTTCTGTTCAAGCGCCATCTAC” it was 0.233; in that of “GATGATTGTTCTCCCAGCTGATGAATTGTTTCAGTCGAGTAAACAAATTTTCCTAATCTTTCTGTTCAAGCGCCATCTAC”, 0.499.
In the case of “GATGATTGTTCTCCCAGCTGATGAATTATCAGTTTCGAGTAAACAAATTTTCCTAATCTTTCTGTTCAAGCGCCATCTAC” it was 0.358; in that of “GATGATTGTTCTCCCAGCTGATGAATTGTAACCATCGAGTAAACAAATTTTCCTAATCTTTCTGTTCAAGCGCCATCTAC”, 1.1.
Turning to “GATGATTGTTCTCCCAGCTGATGAATTATTTAACTCGAGTAAACAAATTTTCCTAATCTTTCTGTTCAAGCGCCATCTAC”, the binding signal (RPM ratio (pull-down/input)) turned out to be 0.39.
The same measure for “GATGATTGTTCTCCCAGCTGATGAATTATATACCTCGAGTAAACAAATTTTCCTAATCTTTCTGTTCAAGCGCCATCTAC”: 0.711.
The same measure for “GATGATTGTTCTCCCAGCTGATGAATTGGAACTATCGAGTAAACAAATTTTCCTAATCTTTCTGTTCAAGCGCCATCTAC”: 0.36.
The same measure for “GATGATTGTTCTCCCAGCTGATGAATTAGGAAACTCGAGTAAACAAATTTTCCTAATCTTTCTGTTCAAGCGCCATCTAC”: 0.56.
Take “GATGATTGTTCTCCCAGCTGATGAATTGTCATATTCGAGTAAACAAATTTTCCTAATCTTTCTGTTCAAGCGCCATCTAC”: the binding signal (RPM ratio (pull-down/input)) is 0.683.
For the sequence “GATGATTGTTCTCCCAGCTGATGAATTGCATACTTCGAGTAAACAAATTTTCCTAATCTTTCTGTTCAAGCGCCATCTAC”, the binding signal (RPM ratio (pull-down/input)) was 1.27.
In the case of “GATGATTGTTCTCCCAGCTGATGAATTCCGCCCTTCGAGTAAACAAATTTTCCTAATCTTTCTGTTCAAGCGCCATCTAC” it was 1.71.
The same measure for “GATGATTGTTCTCCCAGCTGATGAATTTCCACGCTCGAGTAAACAAATTTTCCTAATCTTTCTGTTCAAGCGCCATCTAC”: 0.314; for “GATGATTGTTCTCCCAGCTGATGAATTGTCAGGATCGAGTAAACAAATTTTCCTAATCTTTCTGTTCAAGCGCCATCTAC”: 0.249.
The same measure for “GATGATTGTTCTCCCAGCTGATGAATTAGCTATATCGAGTAAACAAATTTTCCTAATCTTTCTGTTCAAGCGCCATCTAC”: 0.669; for “GATGATTGTTCTCCCAGCTGATGAATTCCCCGGTTCGAGTAAACAAATTTTCCTAATCTTTCTGTTCAAGCGCCATCTAC”: 0.197.
Take “GATGATTGTTCTCCCAGCTGATGAATTCATCTAGTCGAGTAAACAAATTTTCCTAATCTTTCTGTTCAAGCGCCATCTAC”: the binding signal (RPM ratio (pull-down/input)) was 0.354.
